The list shows a part of the results.
Molecular target: T1, MBP-FoxP1dN (Mus musculus, UniProt P58462 326-579)
T1 sequence: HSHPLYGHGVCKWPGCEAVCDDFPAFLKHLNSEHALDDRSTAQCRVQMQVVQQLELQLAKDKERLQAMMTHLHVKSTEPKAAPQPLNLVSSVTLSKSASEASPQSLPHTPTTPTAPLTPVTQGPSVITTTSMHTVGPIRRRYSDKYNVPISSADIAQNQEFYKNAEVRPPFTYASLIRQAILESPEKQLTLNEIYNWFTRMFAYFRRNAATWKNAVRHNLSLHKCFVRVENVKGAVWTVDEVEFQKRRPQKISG
Assay: PD-seq (MBP pull-down with sequencing); 20 mM Tris-HCl pH 7.5, 100 mM NaCl, 1.5 mM MgCl2, 0.4 uM protein, 0.1 uM dsDNA library, 30 min, room temperature, amylose pull-down; high values mean tight binding
Settings: protein: recombinant; tags: His6-MBP; chain copies: 2; dsDNA, one strand shown
Procedure, shortened: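 A degenerate double-stranded DNA library, filled in with Klenow, was added at 0.1 µM to 0.4 µM His6-MBP-tagged mouse FoxP3 or FoxP1 fragment lacking the N-terminus, expressed in E. coli. Incubation lasted 30 min at room temperature in Tris pH 7.5 buffer with NaCl and MgCl2, after which complexes were collected on amylose resin, washed three times, digested with proteinase K to free the DNA, barcoded by PCR and sequenced by Illumina. Binding is the pooled-replicate reads-per-million enrichment of pull-down over input.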

| Sequence | binding signal |
| --- | --- |
| GATGATTGTTCTCCCAGCTGATGAATTTTCAAAGTCGAGTAAACAAATTTTCCTAATCTTTCTGTTCAAGCGCCATCTAC | 0.935 RPM ratio (pull-down/input) |
| GATGATTGTTCTCCCAGCTGATGAATTGAGAGAGTCGAGTAAACAAATTTTCCTAATCTTTCTGTTCAAGCGCCATCTAC | 0.8 RPM ratio (pull-down/input) |
| GATGATTGTTCTCCCAGCTGATGAATTTACCACTTCGAGTAAACAAATTTTCCTAATCTTTCTGTTCAAGCGCCATCTAC | 1.41 RPM ratio (pull-down/input) |
| GATGATTGTTCTCCCAGCTGATGAATTCGGCGTCTCGAGTAAACAAATTTTCCTAATCTTTCTGTTCAAGCGCCATCTAC | 0.796 RPM ratio (pull-down/input) |
| GATGATTGTTCTCCCAGCTGATGAATTGTCACGATCGAGTAAACAAATTTTCCTAATCTTTCTGTTCAAGCGCCATCTAC | 1.07 RPM ratio (pull-down/input) |
| GATGATTGTTCTCCCAGCTGATGAATTAGACAATTCGAGTAAACAAATTTTCCTAATCTTTCTGTTCAAGCGCCATCTAC | 1.12 RPM ratio (pull-down/input) |
| GATGATTGTTCTCCCAGCTGATGAATTCCACAGATCGAGTAAACAAATTTTCCTAATCTTTCTGTTCAAGCGCCATCTAC | 0.826 RPM ratio (pull-down/input) |
| GATGATTGTTCTCCCAGCTGATGAATTATTATCATCGAGTAAACAAATTTTCCTAATCTTTCTGTTCAAGCGCCATCTAC | 1.38 RPM ratio (pull-down/input) |
| GATGATTGTTCTCCCAGCTGATGAATTATGCCCATCGAGTAAACAAATTTTCCTAATCTTTCTGTTCAAGCGCCATCTAC | 0.962 RPM ratio (pull-down/input) |
| GATGATTGTTCTCCCAGCTGATGAATTACTTGCGTCGAGTAAACAAATTTTCCTAATCTTTCTGTTCAAGCGCCATCTAC | 1.15 RPM ratio (pull-down/input) |
| GATGATTGTTCTCCCAGCTGATGAATTGACATAATCGAGTAAACAAATTTTCCTAATCTTTCTGTTCAAGCGCCATCTAC | 1.63 RPM ratio (pull-down/input) |
| GATGATTGTTCTCCCAGCTGATGAATTAGCGCGTTCGAGTAAACAAATTTTCCTAATCTTTCTGTTCAAGCGCCATCTAC | 0.932 RPM ratio (pull-down/input) |
| GATGATTGTTCTCCCAGCTGATGAATTAAAACACTCGAGTAAACAAATTTTCCTAATCTTTCTGTTCAAGCGCCATCTAC | 1.13 RPM ratio (pull-down/input) |
| GATGATTGTTCTCCCAGCTGATGAATTAGGAGACTCGAGTAAACAAATTTTCCTAATCTTTCTGTTCAAGCGCCATCTAC | 0.806 RPM ratio (pull-down/input) |
| GATGATTGTTCTCCCAGCTGATGAATTCTCCGCGTCGAGTAAACAAATTTTCCTAATCTTTCTGTTCAAGCGCCATCTAC | 0.971 RPM ratio (pull-down/input) |
| GATGATTGTTCTCCCAGCTGATGAATTCATCGCCTCGAGTAAACAAATTTTCCTAATCTTTCTGTTCAAGCGCCATCTAC | 0.873 RPM ratio (pull-down/input) |
| GATGATTGTTCTCCCAGCTGATGAATTATTTCATTCGAGTAAACAAATTTTCCTAATCTTTCTGTTCAAGCGCCATCTAC | 1.12 RPM ratio (pull-down/input) |
| GATGATTGTTCTCCCAGCTGATGAATTTTCGTACTCGAGTAAACAAATTTTCCTAATCTTTCTGTTCAAGCGCCATCTAC | 0.994 RPM ratio (pull-down/input) |

Source: PMC12820563, “FoxP3 forms a head-to-head dimer in vivo and stabilizes its multimerization on adjacent microsatellites”
